# Experimental data: the supplement of paper PMC8728848
# Some of the results follow.
# B1: PX14367B-bvu-516-23-516 (Bacteroides vulgatus) (protein)
# chain: LDTIPTTYVDAGSVFGKTGDAEKVLNGGWNYLMETFNSYANPGYGAMLRANDAMGSDVVLNSKYGFRTHNEFSAIYGKGGTNTLSWLLAYRVINDCNGVLDNIDAAEGTQADRNRIKGQALALRGFLYLHLASCYSFAIDKDPDAVCAPIYTQSTDETIAAEGKPASSVSEVYAQSINDLEEALELIPETYVRDAKHKIDNEVVLGILSRACLYARQWEKAKTYSDKLLAKDNYLMTESEYKAGFNSVDNKEWIWGHAQTNDQSNASYQFHYLDTTTKGSYYYSFNVDPYFRDLFEDGDYRKEMLFWATDPGADVESAAYVWMRNSKFRFRDIENQLGDIVLMRVAEIYLINAEAKAHLNDPDAINKLNDLKTARGAKTIHTNLSQQDLLETIWLERRKELWGEGFSLIDIIRNQQTVVRNAYPEGPIDYIYTDENGQTHTLKKKTQGHRFFNFPDKSAFCPNSKYYLYRITDSEELANKNLYKDHPKLSIYTK
# Experiments:
# Experiment in all cases: glycan array binding signal (z-score within array); higher = stronger binding
# Conditions in all cases: glycan notation: IUPAC condensed, linker removed
# Fuc(a1-2)Gal = molecular target: Fuc(a1-2)Gal
# In short: (§1)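 The binding signal is a Z-score computed within each array. Data were drawn from 3228 arrays in the Consortium for Functional Glycomics database, restricted to those with a known protein sequence. Scores were averaged over arrays of the same protein sequence at different concentrations or buffers, and over linkers, and negative values can be taken as non-binding.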
# Fuc(a1-2)Gal(b1-3)GalNAc = molecular target: Fuc(a1-2)Gal(b1-3)GalNAc
# In short: as §1
# [1] = molecular target: Fuc(a1-2)Gal(b1-3)GalNAc(a1-3)[Fuc(a1-2)]Gal(b1-4)Glc
# In short: as §1
# [2] = molecular target: Fuc(a1-2)Gal(b1-3)GalNAc(a1-3)[Fuc(a1-2)]Gal(b1-4)GlcNAc
# In short: as §1
# [3] = molecular target: Fuc(a1-2)Gal(b1-3)GalNAc(b1-3)Gal
# In short: as §1
# [4] = molecular target: Fuc(a1-2)Gal(b1-3)GalNAc(b1-3)Gal(a1-4)Gal(b1-4)Glc
# In short: as §1
# [5] = molecular target: Fuc(a1-2)Gal(b1-3)GalNAc(b1-4)[Neu5Ac(a2-3)]Gal(b1-4)Glc
# In short: as §1
# Fuc(a1-2)Gal(b1-3)GlcNAc = molecular target: Fuc(a1-2)Gal(b1-3)GlcNAc
# In short: as §1
# [6] = molecular target: Fuc(a1-2)Gal(b1-3)GlcNAc(b1-2)Man(a1-3)[Fuc(a1-2)Gal(b1-3)GlcNAc(b1-2)Man(a1-6)]Man(b1-4)GlcNAc(b1-4)GlcNAc
# In short: as §1
# [7] = molecular target: Fuc(a1-2)Gal(b1-3)GlcNAc(b1-2)Man(a1-3)[Fuc(a1-2)Gal(b1-3)GlcNAc(b1-2)Man(a1-6)]Man(b1-4)GlcNAc(b1-4)[Fuc(a1-6)]GlcNAc
# In short: as §1
# [8] = molecular target: Fuc(a1-2)Gal(b1-3)GlcNAc(b1-3)Gal(b1-4)Glc
# In short: as §1
# [9] = molecular target: Fuc(a1-2)Gal(b1-3)GlcNAc(b1-3)GalNAc
# In short: as §1
# [10] = molecular target: Fuc(a1-2)Gal(b1-3)GlcNAc(b1-3)[Fuc(a1-2)Gal(b1-3)GlcNAc(b1-6)]GalNAc
# In short: as §1
# [11] = molecular target: Fuc(a1-2)Gal(b1-3)GlcNAc(b1-3)[Gal(b1-4)GlcNAc(b1-6)]Gal(b1-4)Glc
# In short: as §1
# [12] = molecular target: Fuc(a1-2)Gal(b1-3)GlcNAc(b1-3)[Neu5Ac(a2-6)Gal(b1-4)GlcNAc(b1-6)]Gal(b1-4)Glc
# In short: as §1
# [13] = molecular target: Fuc(a1-2)Gal(b1-3)GlcNAc6S
# In short: as §1
# [14] = molecular target: Fuc(a1-2)Gal(b1-3)[Fuc(a1-4)]GlcNAc
# In short: as §1
# [15] = molecular target: Fuc(a1-2)Gal(b1-3)[Fuc(a1-4)]GlcNAc(b1-2)Man(a1-3)[Fuc(a1-2)Gal(b1-3)[Fuc(a1-4)]GlcNAc(b1-2)Man(a1-3)]Man(b1-4)GlcNAc(b1-4)GlcNAc
# In short: as §1
# [16] = molecular target: Fuc(a1-2)Gal(b1-3)[Fuc(a1-4)]GlcNAc(b1-2)Man(a1-3)[Fuc(a1-2)Gal(b1-3)[Fuc(a1-4)]GlcNAc(b1-2)Man(a1-6)]Man(b1-4)GlcNAc(b1-4)[Fuc(a1-6)]GlcNAc(b1-4)[Fuc(a1-6)]GlcNAc
# In short: as §1
# [17] = molecular target: Fuc(a1-2)Gal(b1-3)[Fuc(a1-4)]GlcNAc(b1-3)[Fuc(a1-3)[Gal(b1-4)]GlcNAc(b1-6)]Gal(b1-4)Glc
# In short: as §1
# [18] = molecular target: Fuc(a1-2)Gal(b1-3)[Fuc(a1-4)]GlcNAc(b1-3)[Gal(b1-4)GlcNAc(b1-6)]Gal(b1-4)Glc
# In short: as §1
# Fuc(a1-2)Gal(b1-4)Glc = molecular target: Fuc(a1-2)Gal(b1-4)Glc
# In short: as §1
# Fuc(a1-2)Gal(b1-4)Glc6S = molecular target: Fuc(a1-2)Gal(b1-4)Glc6S
# In short: as §1
# Fuc(a1-2)Gal(b1-4)GlcNAc = molecular target: Fuc(a1-2)Gal(b1-4)GlcNAc
# In short: as §1
# [19] = molecular target: Fuc(a1-2)Gal(b1-4)GlcNAc(b1-2)Man
# In short: as §1
# [20] = molecular target: Fuc(a1-2)Gal(b1-4)GlcNAc(b1-2)Man(a1-3)[Fuc(a1-2)Gal(b1-4)GlcNAc(b1-2)Man(a1-6)]Man(b1-4)GlcNAc(b1-4)GlcNAc
# In short: as §1
# [21] = molecular target: Fuc(a1-2)Gal(b1-4)GlcNAc(b1-2)Man(a1-3)[Fuc(a1-2)Gal(b1-4)GlcNAc(b1-2)Man(a1-6)]Man(b1-4)GlcNAc(b1-4)[Fuc(a1-6)]GlcNAc
# In short: as §1
# [22] = molecular target: Fuc(a1-2)Gal(b1-4)GlcNAc(b1-2)[Fuc(a1-2)Gal(b1-4)GlcNAc(b1-4)]Man(a1-3)[Fuc(a1-2)Gal(b1-4)GlcNAc(b1-2)Man(a1-6)]Man(b1-4)GlcNAc(b1-4)GlcNAc
# In short: as §1
# [23] = molecular target: Fuc(a1-2)Gal(b1-4)GlcNAc(b1-3)Gal(b1-4)GlcNAc
# In short: as §1
# [24] = molecular target: Fuc(a1-2)Gal(b1-4)GlcNAc(b1-3)Gal(b1-4)GlcNAc(b1-2)Man(a1-3)[Fuc(a1-2)Gal(b1-4)GlcNAc(b1-3)Gal(b1-4)GlcNAc(b1-2)Man(a1-6)]Man(b1-4)GlcNAc(b1-4)GlcNAc
# In short: as §1
# [25] = molecular target: Fuc(a1-2)Gal(b1-4)GlcNAc(b1-3)Gal(b1-4)GlcNAc(b1-3)Gal(b1-4)GlcNAc
# In short: as §1
# [26] = molecular target: Fuc(a1-2)Gal(b1-4)GlcNAc(b1-3)GalNAc
# In short: as §1
# [27] = molecular target: Fuc(a1-2)Gal(b1-4)GlcNAc(b1-3)[Fuc(a1-2)Gal(b1-4)GlcNAc(b1-6)]GalNAc
# In short: as §1
# [28] = molecular target: Fuc(a1-2)Gal(b1-4)GlcNAc(b1-3)[Fuc(a1-3)[Gal(b1-4)]GlcNAc(b1-6)]Gal(b1-4)Glc
# In short: as §1
# [29] = molecular target: Fuc(a1-2)Gal(b1-4)GlcNAc(b1-6)GalNAc
# In short: as §1
# [30] = molecular target: Fuc(a1-2)Gal(b1-4)GlcNAc6S
# In short: as §1
# [31] = molecular target: Fuc(a1-2)Gal(b1-4)[Fuc(a1-3)]GlcNAc
# In short: as §1
# [32] = molecular target: Fuc(a1-2)Gal(b1-4)[Fuc(a1-3)]GlcNAc(b1-2)Man(a1-3)[Fuc(a1-2)Gal(b1-4)[Fuc(a1-3)]GlcNAc(b1-2)Man(a1-6)]Man(b1-4)GlcNAc(b1-4)[Fuc(a1-6)]GlcNAc
# In short: as §1
# [33] = molecular target: Fuc(a1-2)Gal(b1-4)[Fuc(a1-3)]GlcNAc(b1-2)[Fuc(a1-2)Gal(b1-4)[Fuc(a1-3)]GlcNAc(b1-4)]Man(a1-3)[Fuc(a1-2)Gal(b1-4)[Fuc(a1-3)]GlcNAc(b1-2)Man(a1-6)]Man(b1-4)GlcNAc(b1-4)GlcNAc
# In short: as §1
# [34] = molecular target: Fuc(a1-2)Gal(b1-4)[Fuc(a1-3)]GlcNAc(b1-3)Gal(b1-4)[Fuc(a1-3)]GlcNAc
# In short: as §1
# [35] = molecular target: Fuc(a1-2)Gal(b1-4)[Fuc(a1-3)]GlcNAc(b1-3)Gal(b1-4)[Fuc(a1-3)]GlcNAc(b1-3)Gal(b1-4)[Fuc(a1-3)]GlcNAc
# In short: as §1
# [36] = molecular target: Fuc(a1-2)Gal(b1-4)[Fuc(a1-3)]GlcNAc(b1-3)GalNAc
# In short: as §1
# [37] = molecular target: Fuc(a1-2)Gal(b1-4)[Fuc(a1-3)]GlcNAc(b1-3)[Neu5Ac(a2-6)Gal(b1-4)GlcNAc(b1-6)]Gal(b1-4)Glc
# In short: as §1
# [38] = molecular target: Fuc(a1-2)Gal3S(b1-4)GlcNAc
# In short: as §1
# [39] = molecular target: Fuc(a1-2)Gal6S(b1-3)GlcNAc
# In short: as §1
binder,measurement,setting,value
B1,glycan array binding signal (z-score),Fuc(a1-2)Gal,-0.342
same,glycan array binding signal (z-score),Fuc(a1-2)Gal(b1-3)GalNAc,-0.349
same,glycan array binding signal (z-score),[1],-0.385
same,glycan array binding signal (z-score),[2],-0.284
same,glycan array binding signal (z-score),[3],-0.356
same,glycan array binding signal (z-score),[4],-0.248
same,glycan array binding signal (z-score),[5],-0.301
same,glycan array binding signal (z-score),Fuc(a1-2)Gal(b1-3)GlcNAc,-0.323
same,glycan array binding signal (z-score),[6],2.86
same,glycan array binding signal (z-score),[7],-0.028
same,glycan array binding signal (z-score),[8],-0.294
same,glycan array binding signal (z-score),[9],-0.387
same,glycan array binding signal (z-score),[10],-0.174
same,glycan array binding signal (z-score),[11],-0.164
same,glycan array binding signal (z-score),[12],-0.287
same,glycan array binding signal (z-score),[13],-0.079
same,glycan array binding signal (z-score),[14],-0.305
same,glycan array binding signal (z-score),[15],-0.201
same,glycan array binding signal (z-score),[16],-0.237
same,glycan array binding signal (z-score),[17],-0.244
same,glycan array binding signal (z-score),[18],-0.358
same,glycan array binding signal (z-score),Fuc(a1-2)Gal(b1-4)Glc,-0.35
same,glycan array binding signal (z-score),Fuc(a1-2)Gal(b1-4)Glc6S,-0.226
same,glycan array binding signal (z-score),Fuc(a1-2)Gal(b1-4)GlcNAc,-0.342
same,glycan array binding signal (z-score),[19],-0.373
same,glycan array binding signal (z-score),[20],0.969
same,glycan array binding signal (z-score),[21],-0.308
same,glycan array binding signal (z-score),[22],-0.126
same,glycan array binding signal (z-score),[23],-0.378
same,glycan array binding signal (z-score),[24],-0.179
same,glycan array binding signal (z-score),[25],-0.299
same,glycan array binding signal (z-score),[26],-0.282
same,glycan array binding signal (z-score),[27],-0.275
same,glycan array binding signal (z-score),[28],-0.367
same,glycan array binding signal (z-score),[29],-0.204
same,glycan array binding signal (z-score),[30],-0.225
same,glycan array binding signal (z-score),[31],-0.35
same,glycan array binding signal (z-score),[32],-0.29
same,glycan array binding signal (z-score),[33],-0.342
same,glycan array binding signal (z-score),[34],-0.261
same,glycan array binding signal (z-score),[35],-0.234
same,glycan array binding signal (z-score),[36],0.799
same,glycan array binding signal (z-score),[37],-0.236
same,glycan array binding signal (z-score),[38],-0.309
same,glycan array binding signal (z-score),[39],-0.4
